For this assay, the target named is T1, recombinant human CD39 (human, UniProt P49961 38-478).
T1 chain: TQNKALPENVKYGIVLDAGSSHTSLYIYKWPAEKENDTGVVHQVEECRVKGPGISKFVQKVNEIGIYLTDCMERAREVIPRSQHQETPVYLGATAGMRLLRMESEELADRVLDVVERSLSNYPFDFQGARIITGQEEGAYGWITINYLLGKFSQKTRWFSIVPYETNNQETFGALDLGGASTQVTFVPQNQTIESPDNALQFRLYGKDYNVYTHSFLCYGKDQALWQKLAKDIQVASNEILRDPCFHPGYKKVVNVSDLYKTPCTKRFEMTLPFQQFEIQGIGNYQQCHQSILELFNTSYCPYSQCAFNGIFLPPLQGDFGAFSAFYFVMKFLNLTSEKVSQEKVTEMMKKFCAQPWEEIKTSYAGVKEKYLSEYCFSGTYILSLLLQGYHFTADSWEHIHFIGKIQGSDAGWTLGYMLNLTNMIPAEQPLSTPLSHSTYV
The assay is described as follows: BLI (ForteBio); IgG, monovalent. (In general: Biolayer interferometry detects binding as a change in optical thickness at a sensor tip.)

B1: Clone #5 (antibody, V domains shown)
VH: not shown
VL: DIQMTQSPSSLSASVGDRVTITCQASQDISNYLNWYQQKPGKAPKLLIYDASNLATGVPSRFSGSGSGTDFTFTISSLQPEDIATYYCQQLYHLPITFGGGTKVEIK
Turning to B1, the Kd stood at 29.6 nM.

A word on the Kd: it is the equilibrium constant for the complex coming apart.
